Several values for one entry are separate records, joined by “and”; a condition that tells them apart may be missing. Equal entries are not always repeated. This continues a long series; more values of the same kind are listed elsewhere.
Legend:
Panc-1 xenograft = test: Ex vivo biodistribution in Panc-1 xenograft bearing mice; details: Panc-1 xenograft mice, 1 h p.i., individual animals
Capan-1 xenograft = test: Ex vivo biodistribution in Capan-1 xenograft bearing mice; details: Capan-1 xenograft mice, 1 h p.i., individual animals
Experimental: All animal procedures were performed in accordance with the UK Animals (Scientific Procedures) Act 1986 and with local ethical committee approval. Animals were housed in IVC cages in sex-matched groups up to 5 per cage, in an artificial day-night cycle facility, with ad libitum access to food and water. Tumour xenografts or allografts were generated by subcutaneous injection of PANC-1 or Capan-1 cell suspensions in the hind flank of balb/c nu/nu animals. CaNT xenografts were generated by harvesting CaNT tumours from donor animals, and injecting a tumour homogenate subcutaneously in the flank of wild type CBA/Carl mice. Tumours were irradiated (10 Gy, 2 Gy/min) using a 300 kV X-ray device.
Dynamic PET/CT images were acquired following an intravenous bolus administration of [^18F]-olaparib. Biodistribution studies, where selected tissues were harvested, were performed 1 h post injection. Some animals were also administered an excess of cold, unlabelled olaparib for evaluating the specificity of tumour uptake. EF5, a hypoxia-selective marker, was injected 2 h before culling of the animal. Digital autoradiography was performed on tumour sections. Image analysis was performed using PMOD.
Cells were harvested using trypsin, washed twice using PBS, and reconstituted in DMEM. Panc-1 or Capan-1 xenograft tumours were established in the right hind flank of female NOD/SCID mice (Charles River, UK) by subcutaneous injection of 1×10^6 cells in PBS:matrigel (150 μL). Tumour volumes (V) were calculated after calliper measurement using the following equation: V=(a^2×b)/2, where a is the width of the tumour and b the length (small and large diameters, respectively). The individual relative tumour volume (RTV) was defined as Vt/Vo, where Vt is the volume at a given time and Vo at the start of treatment. Animals were entered in in vivo studies when their tumour was at least 200 mm^3.
Two hours prior to PET/CT imaging, animals were exposed to X-irradiation of the tumour (10 Gy or sham) (see schedule in FIG. 13). Radiation was delivered using a Gulmay 320 kV X-irradiator; 2.0 Gy/min. Anaesthesia was maintained at 2.5% isoflurane throughout the duration of the irradiation, and animals were allowed to recover. To study the relationship of PARP1 expression, ^18F-olaparib uptake and hypoxia, animals were administered 0.6 μg in 200 μL (0.9% saline) intraperitoneally, one hour prior to PET/CT imaging. Naïve CBA/Carl mice, not bearing tumours, were not irradiated, nor was EF5 administered.
Dynamic PET/CT images were acquired using a VECTor ^4CT integrated PET/CT system. Mice were anaesthetised by 4% isoflurane gas (0.5 L/min O2) and placed on a custom-built imaging cradle in a prone position. Animals mice were intravenously injected with [^18F]-olaparib or (3-5 MBq, 8-11 GBq/μmol, through a tail vein catheter, and dynamic imaging was performed over 45-60 min after radiolabelled compound administration. PET acquisition (150 s per frame, using list mode acquisition) using an ultra-high resolution rat/mouse 1.8 mm collimator, followed by a cone-beam CT scan (55 kV, 0.19 mA) for anatomical reference and attenuation correction. Anaesthesia was maintained at 2.5% isoflurane throughout the duration of the image acquisition. PET images were reconstructed using U-SPECT-Rec3.22 software (MILabs, Utrecht, The Netherlands), applying a pixel-based algorithm with 8 subsets, 6 iterations and 0.8 mm voxel size for ^18F (energy window settings 477.9-584.1 keV).
After PET/CT image acquisition, animals were euthanized by cervical dislocation and selected organs, tissues and blood were removed. The amount of radioactivity in each organ was measured using a 2480 WIZARD^2 gamma counter (PerkinElmer). Counts per minute were converted into MBq using a calibration curve generated from known standards. Values were decay-corrected to the time of injection, and the percentage of the injected dose per gram (% ID/g) of each tissue was calculated.

Ex vivo biodistribution Lung (Panc-1 xenograft; + IR (10 Gy)): 3.94 % ID/g and 4.47 % ID/g (2×)
Ex vivo biodistribution Brain (Capan-1 xenograft; + IR (10 Gy)): 0.06 % ID/g and 0.03 % ID/g (2×)
Ex vivo biodistribution Brain (Capan-1 xenograft; + block (excess cold olaparib)): 0.04 % ID/g and 0.03 % ID/g (2×)
Ex vivo biodistribution Skin (Capan-1 xenograft; + block (excess cold olaparib)): 0.14 % ID/g and 0.46 % ID/g
Compound: O=C(c1cc(Cc2n[nH]c(=O)c3ccccc23)ccc1[18F])N1CCN(C(=O)C2CC2)CC1 [[^18F]olaparib]
Ex vivo biodistribution Blood (Panc-1 xenograft; + IR (10 Gy)): 0.63 % ID/g and 0.83 % ID/g and 1.17 % ID/g
Ex vivo biodistribution Bone (Panc-1 xenograft; + IR (10 Gy)): 9.12 % ID/g and 4.13 % ID/g and 3.81 % ID/g
Ex vivo biodistribution Fat (Panc-1 xenograft; + IR (10 Gy)): 0.66 % ID/g and 1.41 % ID/g and 0.82 % ID/g
Ex vivo biodistribution Heart (Panc-1 xenograft; + IR (10 Gy)): 3.14 % ID/g and 2.49 % ID/g and 2.88 % ID/g
Ex vivo biodistribution Skin (Panc-1 xenograft; + IR (10 Gy)): 2.10 % ID/g and 2.38 % ID/g and 2.66 % ID/g
Ex vivo biodistribution Tumour (Panc-1 xenograft; + IR (10 Gy)): 6.43 % ID/g and 3.03 % ID/g and 6.59 % ID/g
Ex vivo biodistribution Blood (Panc-1 xenograft; + block (excess cold olaparib)): 2.12 % ID/g and 2.29 % ID/g and 2.51 % ID/g and 1.06 % ID/g
Ex vivo biodistribution Fat (Panc-1 xenograft; + block (excess cold olaparib)): 0.53 % ID/g and 0.62 % ID/g and 0.35 % ID/g and 0.19 % ID/g
Ex vivo biodistribution Heart (Panc-1 xenograft; + block (excess cold olaparib)): 1.98 % ID/g and 1.59 % ID/g and 1.51 % ID/g and 0.78 % ID/g
Ex vivo biodistribution Skin (Panc-1 xenograft; + block (excess cold olaparib)): 1.65 % ID/g and 1.09 % ID/g and 1.10 % ID/g and 0.66 % ID/g
Ex vivo biodistribution Tumour (Panc-1 xenograft; + block (excess cold olaparib)): 1.68 % ID/g and 0.92 % ID/g and 1.09 % ID/g (2×)
Ex vivo biodistribution Bone (Panc-1 xenograft; tracer alone): 2.71 % ID/g and 1.88 % ID/g and 1.26 % ID/g and 1.50 % ID/g
Ex vivo biodistribution Fat (Panc-1 xenograft; tracer alone): 0.97 % ID/g and 0.82 % ID/g and 0.68 % ID/g and 0.45 % ID/g and 0.44 % ID/g and 0.37 % ID/g
Ex vivo biodistribution Tumour (Panc-1 xenograft; tracer alone): 1.94 % ID/g and 4.07 % ID/g and 4.20 % ID/g and 3.27 % ID/g and 2.43 % ID/g and 3.07 % ID/g
Ex vivo biodistribution Blood (Capan-1 xenograft; + IR (10 Gy)): 0.86 % ID/g and 0.43 % ID/g and 1.16 % ID/g
Ex vivo biodistribution Caecum (Capan-1 xenograft; + IR (10 Gy)): 7.58 % ID/g and 4.46 % ID/g and 5.92 % ID/g
Ex vivo biodistribution Fat (Capan-1 xenograft; + IR (10 Gy)): 0.24 % ID/g and 0.13 % ID/g and 0.19 % ID/g
Ex vivo biodistribution Gallbladder (Capan-1 xenograft; + IR (10 Gy)): 68.68 % ID/g and 31.81 % ID/g and 36.90 % ID/g
Ex vivo biodistribution Heart (Capan-1 xenograft; + IR (10 Gy)): 0.92 % ID/g and 0.48 % ID/g and 0.80 % ID/g
Ex vivo biodistribution Lung (Capan-1 xenograft; + IR (10 Gy)): 0.83 % ID/g and 0.60 % ID/g and 0.85 % ID/g
Ex vivo biodistribution Tumour (Capan-1 xenograft; + IR (10 Gy)): 1.85 % ID/g and 1.70 % ID/g and 2.48 % ID/g
Ex vivo biodistribution Blood (Capan-1 xenograft; + block (excess cold olaparib)): 0.56 % ID/g and 0.25 % ID/g and 0.27 % ID/g
Ex vivo biodistribution Caecum (Capan-1 xenograft; + block (excess cold olaparib)): 5.07 % ID/g and 9.13 % ID/g and 4.00 % ID/g
Ex vivo biodistribution Fat (Capan-1 xenograft; + block (excess cold olaparib)): 0.36 % ID/g and 0.22 % ID/g and 0.77 % ID/g
Ex vivo biodistribution Gallbladder (Capan-1 xenograft; + block (excess cold olaparib)): 88.82 % ID/g and 105.86 % ID/g and 35.11 % ID/g
Ex vivo biodistribution Heart (Capan-1 xenograft; + block (excess cold olaparib)): 1.83 % ID/g and 0.53 % ID/g and 1.62 % ID/g
Ex vivo biodistribution Lung (Capan-1 xenograft; + block (excess cold olaparib)): 1.86 % ID/g and 0.90 % ID/g and 2.04 % ID/g
Ex vivo biodistribution Tumour (Capan-1 xenograft; + block (excess cold olaparib)): 0.69 % ID/g and 1.27 % ID/g and 1.04 % ID/g
Ex vivo biodistribution Blood (Capan-1 xenograft; tracer alone): 0.30 % ID/g and 0.23 % ID/g and 0.31 % ID/g and 0.72 % ID/g
Ex vivo biodistribution Brain (Capan-1 xenograft; tracer alone): 0.82 % ID/g and 0.03 % ID/g (2×) and 0.10 % ID/g
Ex vivo biodistribution Caecum (Capan-1 xenograft; tracer alone): 5.11 % ID/g and 4.35 % ID/g and 3.31 % ID/g and 24.11 % ID/g
Ex vivo biodistribution Fat (Capan-1 xenograft; tracer alone): 0.46 % ID/g and 0.19 % ID/g and 0.27 % ID/g and 0.69 % ID/g
Ex vivo biodistribution Gallbladder (Capan-1 xenograft; tracer alone): 81.02 % ID/g and 24.53 % ID/g and 34.02 % ID/g and 446.94 % ID/g
Ex vivo biodistribution Heart (Capan-1 xenograft; tracer alone): 1.75 % ID/g and 0.87 % ID/g and 1.81 % ID/g and 2.24 % ID/g
Ex vivo biodistribution Lung (Capan-1 xenograft; tracer alone): 2.60 % ID/g and 1.49 % ID/g and 2.66 % ID/g and 3.97 % ID/g
Ex vivo biodistribution Tumour (Capan-1 xenograft; tracer alone): 2.48 % ID/g and 3.21 % ID/g and 2.94 % ID/g and 1.73 % ID/g

Reference: patent US20250340519A1, “RADIOLABELLED COMPOUND” (OXFORD UNIVERSITY INNOVATION LIMITED, priority 2018, published 2025)
